Measured values: PubChem BioAssay AID493131 (Broad Institute, 2011)
The whole screen tested about 340,000 compounds, of which about 3,300 (0.97%) were called active. The inconclusive results got no clear call from the source; some entries with a clear call stand among them for comparison.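 How the source made its calls: active means mean activation above about 17%, with every replicate also reaching it (limit read from the data, passing the limit was not always enough); inconclusive means only one of the two conditions met; inactive means the rest.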

These compounds were tested against Protein FosB (Mus musculus) (UniProt P13346) (assay: enhancers of mouse delta FosB DNA binding – biochemical, fluorescence polarization, TAMRA-CDK5 oligo, single point, primary screen (AID 493131;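 further: fluorescence polarization rise as delta FosB binds a TAMRA Cdk5 AP-1 oligo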)). Details: purified delta FosB, at 25 µM, active compounds read high, percent of positive-control signal above neutral wells.
Chain of UniProt P13346 (P13346 whole entry, looked up): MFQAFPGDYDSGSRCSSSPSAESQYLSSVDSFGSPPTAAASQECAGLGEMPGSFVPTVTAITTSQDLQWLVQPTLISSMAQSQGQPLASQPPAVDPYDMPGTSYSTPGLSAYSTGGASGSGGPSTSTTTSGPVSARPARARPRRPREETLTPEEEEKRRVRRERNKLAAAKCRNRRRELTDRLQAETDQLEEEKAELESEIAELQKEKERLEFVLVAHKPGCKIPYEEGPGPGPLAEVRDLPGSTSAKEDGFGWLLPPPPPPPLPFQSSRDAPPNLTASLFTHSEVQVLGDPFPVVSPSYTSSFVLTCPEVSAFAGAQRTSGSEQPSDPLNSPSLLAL
`CCC(C(=O)NC(C)(C)C)N(Cc1ccccc1Cl)C(=O)c1snc(C(N)=O)c1N` (centres undefined) was tested, and the activation was inactive: -9.12%. For `O=C(CSc1nnc(NC(=O)c2cccc(F)c2)s1)NC1CCCC1`, the activation was active: 60.3%. In the case of `COc1ccc(-n2c(C)cc(C(=O)COC(=O)Cc3n[nH]c(=O)c4ccccc34)c2C)cc1`, the activation is reported as inactive: -2.93%. In the case of `O=C(CC1SC(=Nc2ccccc2)N(CCO)C1=O)Nc1ccccc1` (centres undefined), the activation is reported as inactive: -2.85%. For `C[C@H](CO)N1C[C@H](C)[C@@H](CN(C)C(=O)NC2CCCCC2)Oc2c(NC(=O)Nc3ccccc3)cccc2C1=O`, the activation was inactive: -0.586%. For `O=C(Nc1ccc(-c2nc3ccccc3o2)c(O)c1)c1cc(-n2cnnc2)ccc1Cl`, the activation was inconclusive: 18.6%. With `Cc1ccc(NC(=O)c2ccc(CN3CCN(C)CC3)cc2)cc1Nc1nccc(-c2cccnc2)n1` the activation was inconclusive: 17.9%. For `COc1ccc2ncccc2c1Cc1c(OC)ccc2ncccc12`, the activation was inconclusive: 24.3%. In the case of `Cc1ccc(NC(=O)/C=C/c2cccc([N+](=O)[O-])c2)nc1`, the activation is reported as inconclusive: 18%. `COc1ccc(/C=N/Nc2cc(N3CCCC3)nc(N3CCCC3)n2)cc1` was tested, and the activation was active: 22.6%. In the case of `CN1/C(=C\C=C(C#N)C#N)C(C)(C)c2ccccc21`, the activation is reported as active: 113%. `Cc1ccc(NC(=O)Nc2ccc3c(c2)C(=O)OC3)cc1Cl` was tested, and the activation was active: 29%. For `Cc1cc(C)c(S(=O)(=O)Nc2ccc(-c3cn4ccccc4n3)cc2)c(C)c1`, the activation was inconclusive: 19.7%. For `Cc1cc(C)nc(NC(=S)Nc2ccc(Br)cc2Cl)c1`, the activation was inconclusive: 16.8%. With `Cc1ccc(C(=O)Nc2cccc(C(F)(F)F)c2)cc1NC(=O)c1[nH]cnc1C(N)=O` the activation was inconclusive: 24.9%. With `O=C(Nc1ccc(C2=NCCN2)cc1)c1ccc(C(=O)Nc2ccc(C3=NCCN3)cc2)c([N+](=O)[O-])c1` the activation was inconclusive: 19.9%. `COc1ccc(-c2cc(C(F)(F)F)nc(-n3cc(Cl)cn3)n2)cc1` was tested, and the activation was inactive: -22.9%. For `CCn1c(=S)sc2c(=O)n(CC(=O)Nc3ccc(Cl)cc3)c(C)nc21`, the activation was inconclusive: 47.9%. `Cc1ccc(CNC(=O)Nc2ccccc2)c(C)c1` was tested, and the activation was inconclusive: 17%. In the case of `CCOC(=O)C1CCCN(CCSc2ccc(C)cc2)C1` (centres undefined), the activation is reported as inconclusive: 118%. `Cc1ccc(Cn2c(N)c(S(=O)(=O)c3cccs3)c3nc4ccccc4nc32)cc1` was tested, and the activation was inconclusive: 16.7%. With `N=c1n(CC(=O)c2ccc([N+](=O)[O-])cc2)c2ccccc2n1Cc1ccc(Cl)cc1` the activation was inconclusive: 18.5%. With `O=[N+]([O-])c1ccc(S(=O)(=O)Nc2nc3ccccc3nc2Nc2ccccc2)cc1` the activation was inactive: -8.9%. With `O=C(Nc1ccc(F)cc1)c1cccc(N2C(=O)C3C4CCC(C4)C3C2=O)c1` (centres undefined) the activation was inactive: 1.28%. In the case of `O=C(NCC(=O)N1CCN(c2ccccc2)CC1)c1ccco1`, the activation is reported as inactive: -1.16%. In the case of `CCN1C(=O)c2cccc3c(S(=O)(=O)N(C(C)=O)c4ccc(OC(C)=O)cc4)ccc1c23`, the activation is reported as inactive: 1.44%. With `COc1ccc(NC(=O)CSc2nc3c(sc4ccccc43)c(=O)n2CCCN2CCCC2)cc1` the activation was inconclusive: 18.9%. For `Cc1cccc(C(C)C)c1NC(=O)COC(=O)c1cccc(S(=O)(=O)N2CCc3ccccc3C2)c1`, the activation was inconclusive: 16.4%. With `COc1ccc(/C=C(\C#N)C(=O)OCC(=O)NCc2ccccc2OC)cc1` the activation was active: 30.5%. `CCC(=O)NC(c1cccs1)c1ccc2cccnc2c1O` (centres undefined) was tested, and the activation was inactive: -13%. In the case of `O=C(Cc1ccccc1)Nc1ccc(N2CCCC2)cc1`, the activation is reported as active: 68.1%. `CCC(=O)Nc1ccc(NC(=O)CSc2nc3cc4c(cc3cc2C)CCC4)cc1` was tested, and the activation was inconclusive: 45.9%. In the case of `CCc1c(C)c(C#N)c2[nH]c3ccccc3n2c1=S`, the activation is reported as inactive: -3.34%. With `O=C(CCS(=O)(=O)c1ccccc1)Nc1ccccc1-c1nc2ccccc2s1` the activation was inactive: 1.46%. In the case of `Cc1ccc(-c2csc(NC(=O)c3cccc(S(=O)(=O)N4CCN(C)CC4)c3)n2)cc1`, the activation is reported as inconclusive: 26.8%. In the case of `NC(=O)c1ccsc1NC(=O)COC(=O)/C=C/c1ccc([N+](=O)[O-])cc1`, the activation is reported as inconclusive: 19.4%. In the case of `COc1ccccc1N1CCN(C(=O)c2cc(=O)c3cc(C)cc(C)c3o2)CC1`, the activation is reported as inactive: -12.4%. For `O=C(NNC(=O)c1ccccc1[N+](=O)[O-])c1ccc(NC(=O)c2ccccc2)cc1`, the activation was inconclusive: 17.9%. In the case of `O=C(Cc1ccc(-n2c(=O)c3sccc3n(Cc3ccc(F)cc3)c2=O)cc1)NCc1ccco1`, the activation is reported as active: 20.9%. With `COc1c(F)c(F)c(C(=O)Nc2ccc(NC(=O)Cc3ccccc3)cc2)c(F)c1F` the activation was inconclusive: 18.8%. In the case of `COc1ccc(C(=O)N/N=C/c2cc(Br)ccc2O)cc1OC`, the activation is reported as inconclusive: 25.1%. For `Cn1c(O)c(/C=C2\C=NN=C2c2ccccc2)sc1=S`, the activation was inconclusive: 17.5%. For `COc1cc2c(cc1OC)C(C)N(C(=O)c1cc3c(s1)-c1ccccc1OC3)CC2` (centres undefined), the activation was inconclusive: 16.4%. With `COC(=O)c1ccc(C23CC4(C2)[C@H](CN(C)[C@@H]4c2ccccc2)C3c2ccc(C(F)(F)F)cc2)cc1` (some centres undefined) the activation was inconclusive: 21.7%. With `Cc1ccc(N(CC(=O)NCc2ccc(F)cc2)C(=O)c2snc(C(N)=O)c2N)cc1C` the activation was inconclusive: 18.2%. `O=C(CSc1nnnn1-c1ccccc1)Nc1ncc(Cc2cccc(Cl)c2Cl)s1` was tested, and the activation was active: 77.4%. With `S=C(Nc1ccc(Cl)cc1)c1nc2ccccc2[nH]1` the activation was active: 29.1%. With `C[n+]1c2cc(N)ccc2cc2ccc(N)cc21` the activation was inconclusive: 34.9%. For `O=C(COc1ccccc1[N+](=O)[O-])NNC(=O)Nc1cccc2ccccc12`, the activation was inconclusive: 17.4%. For `NC(=O)c1cc(-c2ccncc2)nc2ccc(Cl)cc12`, the activation was inactive: -9.34%. For `COc1ccc(Nc2nc(N)c([N+](=O)[O-])c(NC3CCCCC3)n2)cc1`, the activation was inconclusive: 22.1%. For `Cc1cc(NC(=O)CSc2nnc(Nc3ccccc3C)s2)no1`, the activation was active: 61.7%. For `N#CCC(=O)Nc1ccc(C(=O)OC(C(=O)Nc2cc(C(F)(F)F)ccc2Cl)c2ccccc2)cc1` (centres undefined), the activation was inconclusive: 23.6%. For `Cc1cccc(CCNC(=O)Cn2ncc3c([nH]c4ccccc43)c2=O)c1`, the activation was inconclusive: 19%. `O=C(N/N=C\c1cc(Cl)ccc1O)c1ccc(S(=O)(=O)N2CCCCC2)cc1` was tested, and the activation was inactive: 7.94%. In the case of `CN(C)c1cccc(Oc2nc3c(c(=O)n(C)c(=O)n3C)n2C)c1`, the activation is reported as inactive: -3.32%. In the case of `Cn1ncc2c(Nc3cccc(Cl)c3)nc(Nc3cccc(Cl)c3)nc21`, the activation is reported as active: 31.4%. In the case of `CCC(/C=C1\Sc2ccc(OC)cc2N1CCO)=C\c1sc2ccc(OC)cc2[n+]1CCO`, the activation is reported as inconclusive: 196%. For `COc1ccc(NC2=Nc3cccc4cccc2c34)cc1`, the activation was inconclusive: 22.9%. With `COc1ccc(NC(=O)Cn2c(-c3ccccc3)cc(C(C)=O)c2C)c(OC)c1` the activation was inconclusive: 24.8%. `N#C/C(=C\c1c[nH]c2ccccc12)C(=O)Nc1ncc(Cc2ccc(Cl)cc2Cl)s1` was tested, and the activation was active: 30.5%. In the case of `CCOc1ccc(NC(=O)CSc2nnnn2C2CCCC2)cc1`, the activation is reported as inactive: 1.46%. In the case of `COC(=O)c1cn(NC(=O)COc2ccc(Cl)cc2)c(=O)c2ccccc12`, the activation is reported as active: 31.9%. For `O=C(O)Cc1sc(Nc2cccc3ccccc23)nc1-c1ccc(Cl)cc1`, the activation was inactive: -4.67%. `CCN1Cc2c(/C=C/c3ccccc3)nc3ccc(OC)cc3c2N(c2cccc(Cl)c2)C1` was tested, and the activation was active: 21.1%. In the case of `COC(=O)c1cc(NC(=O)c2ccccc2)c(=O)oc1C/C=N\OCc1ccc(Cl)cc1Cl`, the activation is reported as inactive: 3%. For `COc1cc(NC(=O)c2ccccc2F)ccc1NC(=O)c1cc2ccccc2o1`, the activation was inconclusive: 31.3%. `O=C(Nc1nc2ccc(F)cc2s1)c1cccc(S(=O)(=O)N2CCc3ccccc32)c1` was tested, and the activation was inconclusive: 19.3%. For `CCOC(=O)C1=CN(Cc2ccco2)S(=O)(=O)N(C)C1c1ccc(F)c(Cl)c1` (centres undefined), the activation was inactive: -13.9%. In the case of `O=C(NCc1ccccn1)c1ccc(Cn2c(=S)[nH]c3ccc(Br)cc3c2=O)cc1`, the activation is reported as inconclusive: 27.7%. In the case of `COc1ccc(/C=C/C(=O)Nc2ccc(-c3nnc4n3CCCCC4)cc2)c(OC)c1`, the activation is reported as inconclusive: 18.4%. In the case of `Cc1cc(-c2nnnn2-c2cc(Cl)cc(Cl)c2)no1`, the activation is reported as inconclusive: 19.5%. In the case of `CCOC(=O)N1CCN(CC(=O)Nc2sc(CC)cc2C(=O)c2ccc(OC)cc2)CC1`, the activation is reported as inactive: -11.4%. For `CCOc1ccc(OCC)c(NC(=O)CSc2nnc(C3CC3)n2CC)c1`, the activation was inactive: -1.85%. `Cc1ccc(NC(=O)CCC(=O)N/N=C/c2coc3ccc(F)cc3c2=O)cc1` was tested, and the activation was inconclusive: 19.9%. In the case of `Cc1cccc(OCC(=O)N/N=C\C=C\c2ccc3c(c2)OCO3)c1C`, the activation is reported as active: 38.1%. `Cc1cccc(NC(=O)CCC(=O)Nc2nnc(C3CCCCC3)s2)c1` was tested, and the activation was active: 30.1%. With `NNc1nc(-c2ccccc2)nc2sc3c(c12)CCCC3` the activation was inactive: -13%. In the case of `COc1cc(/C=N/NC(=O)c2ccc(-c3ccccc3)cc2)cc(OC)c1OC`, the activation is reported as inconclusive: 18.5%. With `Cc1nn(Cc2ccc(Cl)cc2)c(C)c1NC(=O)c1cc(-c2ccc3c(c2)OCO3)on1` the activation was active: 57.9%. With `COc1ccc2nc(NC(=O)C3CCCN(S(=O)(=O)c4cccc5nsnc45)C3)sc2c1` (centres undefined) the activation was active: 24.6%. `COc1ccc(/C=N\NC(=O)c2ccc(Cn3cc(Br)c([N+](=O)[O-])n3)o2)c(OC)c1C` was tested, and the activation was inconclusive: 19.4%. `CCc1ccc2nc(N(CCCN(C)C)C(=O)c3ccc(S(=O)(=O)N4CCc5ccccc5C4)cc3)sc2c1` was tested, and the activation was active: 46.8%. `COc1ccc2cc3[n+](cc2c1OC)CCc1cc2c(cc1-3)OCO2` was tested, and the activation was inconclusive: 23.2%.
